B1: chr7:54825262:54825263:-_ENSG00000132432_ENST00000352861|hu_hu|hu_hu_hu_mus_False|78_98 (ssRNA)
RNA: GGGAGUUCUACAGUCCGACGAUCCUGCCGGCUGGGCACAAACUGCAGCAUUACCUGCAUGACUGCCGUUGGAUGGCGGAUUGAGAGCGUAGAGACACGUAGCUCAGGAGAGAACCGAGCCCAACGGAACCGGAAGCUGGCAACCAACAGAGGAUUGAGCAUCA
B2: 48337146_48368176_1878_3pUTR_ENSG00000102910_ENST00000285737|human|control|control (ssRNA)
RNA: GGGAGUUCUACAGUCCGACGAUCGUCACUGAUAGAUUCAGGUUUUUCAUCUUCUAAGAUGUGUUCUCUGCAACCUUCUCUCUCAGUCACAUCAGAACGGUCCAACUUGGCUUCCUUAUGCUGUCCUUCUGCCACCUUCACGGCCAACAGAGGAUUGAGCAUCA
B3: chr8:117878989:117878990:-_ENSG00000164754_ENST00000297338|hu_hu|hu_hu_hu_mus_True|1_1 (ssRNA)
RNA: GGGAGUUCUACAGUCCGACGAUCCCAGAGGCCCUCGUUUACUGAGGACAAAAUGUGCGUAGAACAUUUUUCUUAUUUGCUAUGAAAUAAGAAGAAACCUGGAUCUCGGCGGGGAGCCGGGAGGGGUGGGUGGCCCGGGGGAGGCAACAGAGGAUUGAGCAUCA
B4: chrX:100668055:100668056:+_ENSG00000126945_ENST00000316594|hu_hu|FALSE|FALSE (ssRNA)
RNA: GGGAGUUCUACAGUCCGACGAUCAAGUUCUACAUAGCUGUGAUCGUAAGCACCCCCACUUGUUCCUGCAGUAGAAUUUAAGAAGAGCUCCACAUAUCUGUGUUGCAUAUUAGCUUUGUCUUUUGCCAUAGCUGCCACAGCAUCCAACAGAGGAUUGAGCAUCA
B5: chr12:39763582:39763583:-_ENSG00000139116_ENST00000544797|hu_mus|hu_hu_hu_mus_False|78_108 (ssRNA)
RNA: GGGAGUUCUACAGUCCGACGAUCCUCUAAGAAUUGGGCAUUCACUUUGAAUUCAGGAGCAGGAAGCCCGUUUUUAAUCGCUGAGGUCUUUUUCUCAUCAAUACUCUUGAACAGGUGUCUAACAGCACGAGAGAUGAUGCCCUGCAACAGAGGAUUGAGCAUCA
B6: chr7:128048437:128048438:+_ENSMUSG00000035064_ENSMUST00000047875|mus_mus|FALSE|FALSE (ssRNA)
RNA: GGGAGUUCUACAGUCCGACGAUCGACACAGCACACAAGUGAAGAUCAGAAGACAACUUGCAGGAGUUUGUUCCCUGCUUCCACGCGUGGGUCCCAAGAACAGAACUCAGAUUGUCAGGUGAGGGUCGGCAGGAGCUUCAUCCACAACAGAGGAUUGAGCAUCA
B7: chr1:29344824:29344825:+_ENSG00000159023_ENST00000356093|hu_hu|motif|central (ssRNA)
RNA: GGGAGUUCUACAGUCCGACGAUCCACGCCAUGGAGUUCUGGGUCGUAGUCUCCCAGUUCAGACUGGAUGGUGUAAGAACCGGAUAAUGCUAAGGUUGCAAAGGAACAGGGCAGACGUCCUGCAACUAUGUCCUGCCGAAGCUGCAACAGAGGAUUGAGCAUCA
B8: chr9:72186818:72186819:+_ENSMUSG00000038535_ENSMUST00000098576|mus_mus|motif|central (ssRNA)
RNA: GGGAGUUCUACAGUCCGACGAUCAGUUUUUAUUUCAGAAAGACGUUCAGAAGUUGGGAUACAAACAGAAACUUGCUCGGCGGGAACUCGGCAAGAAUGAGUUUCAUGCUGACUUAAGUGUGUAGCCAUAUUAUCUAAGCCAGACAACAGAGGAUUGAGCAUCA
B9: chrX:98417731:98417732:-_ENSMUSG00000046032_ENSMUST00000120389|mus_mus|FALSE|FALSE (ssRNA)
RNA: GGGAGUUCUACAGUCCGACGAUCGUUACUGGGCGGCCCGUAAGCGUCGGUCAGGUCUUGGGGCUUCGAGUUAAGGCGCCUAGUGUCAGCCACUGCGGUGUCCGACAUCUUUCCGAAGAAGAGCCCGGUACCGGCGAAGGGGGUCAACAGAGGAUUGAGCAUCA
B10: chr7:103008174:103008175:+_ENSG00000161057_ENST00000292644|hu_mus|FALSE|FALSE (ssRNA)
RNA: GGGAGUUCUACAGUCCGACGAUCACUCAUUGAGCGAGCGUGAAUCUUAAAGAUGUGCGUUCGACCCUCUAAGUCAGGUAAGCUGAACUCAAUCUUCCUGUCCAGCCUCCCCGGUCUCAUGAGCGCUGGGUCCAGAGUGUCAGGCAACAGAGGAUUGAGCAUCA
B11: chr14:32562060:32562061:+_ENSG00000100852_ENST00000539826|hu_mus|motif|central (ssRNA)
RNA: GGGAGUUCUACAGUCCGACGAUCCUUUAUUUGUGAUUCAUUAAAUUUACGAGGAUAUGUACCAGUAGGUACGUCGGCAAAAGGACACUGCAAUUUGUUGGCCAACUGCUGACCCUGGUGCCUGAGAAUUGGUAGAUUUUUACUCAACAGAGGAUUGAGCAUCA
B12: 105239393_105239671_1208_CDS_ENSG00000142208_ENST00000407796|human|control|control (ssRNA)
RNA: GGGAGUUCUACAGUCCGACGAUCGUCCACUGCACGGCCGUAGUCAUUGUCCUCCAGCACCUCGGGGGCCAGGUACUCAGGUGUGCCGCAAAAGGUCUUCAUGGUGGCACCGUCCUUGAUCCCCUCCUUGCACAGCCCGAAGUCCAACAGAGGAUUGAGCAUCA
B13: 97243632_97244010_318_CDS_ENSG00000156467_ENST00000518406|human|control|control (ssRNA)
RNA: GGGAGUUCUACAGUCCGACGAUCGGGGUGAGAGUUUGCUUCACAGAAGCUCUUCUUGGGAUCUGGAGGGACACUCAAUGGGCUGAUCUUUUCAUCUAAGUAGGAAGCAGAGUGCAGAGCUGGAACAGCAAAGACCUCUUCAUACAACAGAGGAUUGAGCAUCA
B14: chr11:23189859:23189860:+_ENSMUSG00000020290_ENSMUST00000020538|mus_mus|motif|central (ssRNA)
RNA: GGGAGUUCUACAGUCCGACGAUCUUGAGGUAUUUCAGCUGUUAUAUGUCCACCUAAUUUGUUGACAAUAAUGGCCAUAGUACGGAGCACUUCUGGUUCUCUAGCAGCUGGUACAUUUCUCUGGUAAUCAAUAAGAACUGCAUCCAACAGAGGAUUGAGCAUCA
B15: chr18:52893488:52893489:-_ENSG00000196628_ENST00000354452|hu_hu|FALSE|FALSE (ssRNA)
RNA: GGGAGUUCUACAGUCCGACGAUCCAUUUAGACCAUUUCAAUGGAUUUAUGGCAUUUACUCAGUGCUGAUAGGUGGAAAAACUACUUGAACAGGGAUUUUUUUUUUUCUUAAUACAUGCCAAGAAUUGUGUGGCUGUAAAAAUACAACAGAGGAUUGAGCAUCA
B16: 85775473_85775593_3881_3pUTR_ENSG00000115486_ENST00000233838|human|control|control (ssRNA)
RNA: GGGAGUUCUACAGUCCGACGAUCGGAAGUCUGAGUUGGGGAUGAAUGUAAGUUCUGUUUAGGAUGAACUGAGCUUGAUAGCCCUGUGGGAUAUCCAGGUGGAACUUAGACCUAUACGUCUAGGGCACAGGAAAGAAACCUAGCCAACAGAGGAUUGAGCAUCA
B17: 44924268_44924388_632_3pUTR_ENSG00000146676_ENST00000395699|human|control|control (ssRNA)
RNA: GGGAGUUCUACAGUCCGACGAUCCGGUGAUGGAGGUGCCCUCCGGGAGCUCUCCAUACAGGCCGCCCCCUGGGCCCCCGGCGCCGCCUCCCGGGCCGCCUGCCAGCUCGUCGUCCUCGCCUCCGUAGUCGUCUAUGAGCUUCGCAACAGAGGAUUGAGCAUCA
B18: chr13:22070289:22070290:-_ENSG00000165487_ENST00000382374|hu_hu|FALSE|FALSE (ssRNA)
RNA: GGGAGUUCUACAGUCCGACGAUCAGCAAAGUCUUCCAAGUGGGUUGUAAAAUGGCAAAAUGACUUGAAUUCAUCCAAACUAAUGCUCUCUCCUGCUGACAACUUCUCUCUCACAUUUUUCCAAUAAAUAUCUUUAUUUUCAGUCAACAGAGGAUUGAGCAUCA
B19: 25151176_25158280_1304_CDS_ENSMUSG00000033569_ENSMUST00000126626|mouse|control|control (ssRNA)
RNA: GGGAGUUCUACAGUCCGACGAUCAUCAUCAUUUAGAGAAAUCCUGGAGAGUGUUCCUGUUAUGGUUGCUGCGCGGCAGGGGCCGAUAUCCUUAUGAAGCACUGAUCGGCAAGCAAUGUCUACGUCCUUUUCAAAGUCUGUCAUCAACAGAGGAUUGAGCAUCA
B20: chr1:161326577:161326578:+_ENSG00000143252_ENST00000367975|hu_hu|FALSE|FALSE (ssRNA)
RNA: GGGAGUUCUACAGUCCGACGAUCCAUCAAGUGUCGGAUCCCAUUCCAGGUAUGAUACAUGAGAGGGAAGACAAGUGCAAACUUAGCUGUGUGGAUCAGUGCUGGCCCCAGACACAGGGACUUCACAAGUUCCAAAUAAGACUCCAACAGAGGAUUGAGCAUCA
B21: chr8:29961843:29961844:+_ENSG00000104660_ENST00000321250|hu_hu|motif|central (ssRNA)
RNA: GGGAGUUCUACAGUCCGACGAUCGGCAAGUUCCUUACAAGCGUUACUCAUAGCAUCUGUAUCAUCCACUAAUCUUCUUGCGGUGCAGUAUGGAAUAGGUGAAAGGAUGUAAAAAAAUAGAACAAAGAGGGGCCAGUAUUUGUUCAACAGAGGAUUGAGCAUCA
B22: chr1:60041781:60041782:+_ENSMUSG00000041040_ENSMUST00000036540|mus_hu|mus_mus_mus_hu_False|8_48 (ssRNA)
RNA: GGGAGUUCUACAGUCCGACGAUCAAGUUUACAAUAGUAAAGUAAAUGCAGUAGUGGCAAAUUUUCUUUUAUUUUCCUUCACAAAAGAAAACCUCAGUAACCCAGUCCUAGUCUUGGACAUAGUGAAUCUCCAUGGGUCUGACUCAACAGAGGAUUGAGCAUCA

Consider 22 molecules from article PMC12136788.

Some of the results follow.

This assay concerns the target T1, UNK ZnF1-3 (human, UniProt Q9C0B0 31-174).
T1 sequence: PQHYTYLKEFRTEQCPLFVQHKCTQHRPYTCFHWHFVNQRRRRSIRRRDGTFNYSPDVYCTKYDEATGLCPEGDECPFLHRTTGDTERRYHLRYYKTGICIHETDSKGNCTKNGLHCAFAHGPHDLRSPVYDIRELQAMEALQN
As to the kind of experiment: nsRBNS (natural sequence RNA bind-n-seq); RBNS binding buffer (assumed for nsRBNS): 25 mM Tris pH 7.5, 150 mM KCl, 3 mM MgCl2, 0.01% Triton X-100, 500 ug/ml BSA, 20 U/ml SUPERase-In, 4 C; UNK is unkempt and MSI1 is Musashi-1; names of the RNAs are library labels; protein concentration not given here; high values mean tight binding.
As to B1, the binding signal was determined as 1.38 enrichment R. For B2 the value was 0.556 enrichment R; for B3, 1.56 enrichment R. Regarding B4, the binding signal worked out at 0.847 enrichment R. For B5 the value was 1.69 enrichment R; for B6, 1.33 enrichment R. For the molecule B7, the binding signal was 0.723 enrichment R. For B8 the value was 1.71 enrichment R; for B9, 1.11 enrichment R; for B10, 0.503 enrichment R. The molecule B11 yielded a binding signal of 0.962 enrichment R.

Take B12: the binding signal is 0.873 enrichment R.

For the molecule B13, the binding signal worked out at 1.51 enrichment R. Take B14: the binding signal came to 0.563 enrichment R. Take B15: the binding signal worked out at 0.879 enrichment R. On to B16, for which the binding signal came out at 0.944 enrichment R.

Molecule B17 had a binding signal of 0.68 enrichment R. Molecule B18 registered a binding signal of 2.49 enrichment R. For B19 the value was 1.26 enrichment R. For B20 the value was 1.21 enrichment R; for B21, 1.52 enrichment R. As for B22, the figure is 0.609 enrichment R.
